Structures can show the parent of a compound that is named as a salt. ± gives the standard deviation of the averaged measurements. In all, about 1,900 compounds were measured (“normalised cell viability (NPI; 0 = phenylarsine oxide control, 1 = DMSO control)”: median about 1, lowest 2% from about 0.039 on). The list shows a part of the results.
Tested on: NCI-H1944
Assay: normalised cell viability (NPI; 0 = phenylarsine oxide control, 1 = DMSO control) (fraction of DMSO control); NCI-H1944 is a non-small cell lung cancer line; higher = more viable cells (less compound toxicity)
Conditions: 6 days
[1] = glucocorticoid arm: hydrocortisone 2.75 uM co-treatment, compound 1 µM
[2] = glucocorticoid arm: hydrocortisone 2.75 uM co-treatment, compound 5 µM
[3] = glucocorticoid arm: hydrocortisone 2.75 uM pre-treated 2 days and continued, compound 1 µM
[4] = glucocorticoid arm: hydrocortisone 2.75 uM pre-treated 2 days and continued, compound 5 µM
[5] = glucocorticoid arm: vehicle, compound 1 µM
[6] = glucocorticoid arm: vehicle, compound 5 µM
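Also: CTB read-out in 384-well plates, mean of triplicate wells, normalised per plate against 1 µM phenylarsine oxide and 0.1% DMSO, compounds added 24 h after seeding.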

| SMILES | normalised cell viability [1] | normalised cell viability [2] | normalised cell viability [3] | normalised cell viability [4] | normalised cell viability [5] | normalised cell viability [6] |
| --- | --- | --- | --- | --- | --- | --- |
| CNCC[C@@H](Oc1ccccc1C)c1ccccc1 [Atomoxetine HCl] | 1.001 ± 0.0083 | 1.03 ± 0.015 | 0.99 ± 0.044 | 1.04 ± 0.01 | 1.002 ± 0.0072 | 0.997 ± 0.0027 |
| CNCC[C@@H](Oc1ccccc1C)c1ccccc1 [Tomoxetine hydrochloride] | 0.994 ± 0.0052 | 1.01 ± 0.019 | 1.03 ± 0.021 | 1.017 ± 0.0058 | 0.9977 ± 0.0021 | 0.991 ± 0.0044 |
| c1ccc(CN2CCC3(CCCc4ccccc43)CC2)cc1 [L-687,384 hydrochloride] | 1 ± 0.0092 | 0.956 ± 0.024 | 1.002 ± 0.0072 | 1.007 ± 0.0058 | 1.003 ± 0.0064 | 1.01 ± 0.02 |
| CCC(CC)(NC(=O)C(C)C)C(=O)N[C@@H](CCCN=C(N)N)C(=O)NC1(C(=O)NC(c2ccc(F)cc2)c2ccc(F)cc2)CCCC1 | 0.984 ± 0.021 | 1.01 ± 0.032 | 0.9793 ± 0.0042 | 1.02 ± 0.022 | 0.988 ± 0.01 | 0.9913 ± 0.0081 |
| Cc1cc(Nc2ncc(Cl)c(Nc3ccccc3S(=O)(=O)C(C)C)n2)c(OC(C)C)cc1C1CCNCC1 | 0.708 ± 0.036 | 0.597 ± 0.052 | 0.783 ± 0.013 | 0.615 ± 0.1 | 0.9737 ± 0.0031 | 0.953 ± 0.0053 |
| C[C@@H](Oc1cc(-c2cnn(C3CCNCC3)c2)cnc1N)c1c(Cl)ccc(F)c1Cl | 1.01 | – | – | – | – | – |
| CCCc1c(OCCCOc2ccc(OCC(=O)O)cc2)ccc(C(C)=O)c1O | 1.01 ± 0.013 | 0.994 ± 0.015 | 1.01 ± 0.02 | 0.988 ± 0.022 | 0.9997 ± 0.0096 | 0.9993 ± 0.0011 |
| CC1=C(C(=O)O)N2C(=O)[C@@H](NC(=O)[C@H](N)c3ccccc3)[C@H]2SC1 [Cephalexin hydrate] | 1.003 ± 0.0064 | 1.01 ± 0.012 | 1.01 ± 0.01 | 0.996 ± 0.035 | 0.9907 ± 0.0051 | 0.998 ± 0.001 |
| CC(C)(C)OC(=O)Nc1ccc(-c2cc(C(=O)NCCCCCCC(=O)NO)no2)cc1 | 0.9572 ± 0.0081 | 0.244 ± 0.23 | 0.991 ± 0.025 | 0.677 ± 0.31 | 0.806 ± 0.15 | 0.0189 ± 0.02 |
| O=C(OCCN1CCCCC1)c1c[nH]c2ccccc12 | 0.983 ± 0.016 | 0.951 ± 0.022 | 0.9873 ± 0.0064 | 0.955 ± 0.036 | 0.9787 ± 0.0025 | 0.975 ± 0.0035 |
| C[C@H](CCC(=O)NCCS(=O)(=O)O)[C@H]1CC[C@H]2[C@@H]3[C@H](O)C[C@@H]4C[C@H](O)CC[C@]4(C)[C@H]3C[C@H](O)[C@]12C [Taurocholic acid sodium salt hydrate] | 1.001 ± 0.009 | 1.01 ± 0.01 | 0.9973 ± 0.0046 | 1.005 ± 0.0071 | 0.987 ± 0.0082 | 0.9903 ± 0.0075 |
| Nc1ccccc1NC(=O)c1ccc(CNc2nccc(-c3cccnc3)n2)cc1 [Mocetinostat (MGCD0103)] | 1.033 ± 0.0058 | 0.00494 ± 0.0024 | 1.02 ± 0.02 | 0.0153 ± 0.0051 | 0.585 ± 0.02 | 0.00194 ± 0.00024 |
| CCCn1c(=O)c2[nH]c(-c3ccc(OCC(=O)NCCN)cc3)nc2n(CCC)c1=O [Xanthine amine congener] | 0.998 ± 0.0035 | 0.999 ± 0.0098 | 1.02 ± 0.017 | 1.01 ± 0.017 | 1.02 | 1.017 ± 0.0058 |
| CC[C@@H]1Cc2cc(O)ccc2C2=C1c1ccc(O)cc1C[C@H]2CC [(R,R)-cis-Diethyl tetrahydro-2,8-chrysenediol] | 0.979 ± 0.015 | 0.897 ± 0.015 | 0.9867 ± 0.0086 | 1.01 ± 0.015 | 0.9853 ± 0.0091 | 0.987 ± 0.011 |
| Cc1c2oc3c(C)ccc(C(=O)N[C@@H]4C(=O)N[C@H](C(C)C)C(=O)N5CCC[C@H]5C(=O)N(C)CC(=O)N(C)[C@@H](C(C)C)C(=O)O[C@@H]4C)c3nc-2c(C(=O)N[C@@H]2C(=O)N[C@H](C(C)C)C(=O)N3CCC[C@H]3C(=O)N(C)CC(=O)N(C)[C@@H](C(C)C)C(=O)O[C@@H]2C)c(N)c1=O [Dactinomycin] | 0.0161 ± 0.0015 | 0.0688 ± 0.0039 | 0.0397 ± 0.0056 | 0.183 ± 0.016 | 0.0046 ± 0.00021 | 0.0187 ± 0.0011 |
| Cc1nccn1CC1CCc2c(c3ccccc3n2C)C1=O (stereo not drawn) [Ondansetron HCl] | 1.02 ± 0.015 | 1.03 ± 0.038 | 1.02 ± 0.011 | 1.04 ± 0.01 | 1.006 ± 0.0063 | 1.005 ± 0.0081 |
| O=c1c2ccccc2[nH]c(=S)n1CCN1CCC(=C(c2ccc(F)cc2)c2ccc(F)cc2)CC1 [Diacylglycerol Kinase Inhibitor II] | 1.013 ± 0.0058 | 0.987 ± 0.022 | 1.006 ± 0.0063 | 1 ± 0.024 | 1.013 ± 0.0058 | 1.017 ± 0.0058 |
| CC(=O)O[C@]1(C(C)=O)CC[C@H]2[C@@H]3C=C(C)C4=CC(=O)CC[C@]4(C)[C@H]3CC[C@@]21C [Megestrol Acetate] | 0.996 ± 0.014 | 1.017 ± 0.0058 | 1.01 ± 0.013 | 1.02 ± 0.011 | 0.952 ± 0.014 | 0.946 ± 0.012 |
| CC(=O)O[C@]1(C(C)=O)CC[C@H]2[C@@H]3C=C(C)C4=CC(=O)CC[C@]4(C)[C@H]3CC[C@@]21C [Megestrol acetate] | 1.02 | 0.8967 ± 0.0085 | 1.007 ± 0.0058 | 0.942 ± 0.012 | 0.97 ± 0.013 | 0.642 ± 0.013 |
| Cc1nc(N=Nc2cc(S(=O)(=O)O)c3cc([N+](=O)[O-])cc(S(=O)(=O)O)c3c2)c(COP(=O)(O)O)c(C=O)c1O [PPNDS tetrasodium] | 1.001 ± 0.0085 | 1.01 ± 0.037 | 1.013 ± 0.0058 | 0.857 ± 0.27 | 0.9973 ± 0.0021 | 0.999 ± 0.0098 |
| Cc1cccc(C2CN(C)CCc3c2cc(O)c(O)c3Cl)c1 (stereo not drawn) | 0.974 ± 0.018 | 0.979 ± 0.026 | 0.856 ± 0.23 | 0.977 ± 0.02 | 0.982 ± 0.0044 | 0.986 ± 0.0052 |
| CCN1CCN(c2ccc(Nc3cc(N(C)C(=O)Nc4c(Cl)c(OC)cc(OC)c4Cl)ncn3)cc2)CC1 | 1.03 ± 0.01 | 1.033 ± 0.0058 | 1.01 ± 0.019 | 1.02 ± 0.01 | 1.007 ± 0.0058 | 0.998 ± 0.021 |
| Oc1cc(O)cc(/C=C/c2ccc(O)c(O)c2)c1 [Piceatannol] | – | – | – | – | 1 | – |
| CC[C@@]1(O)C(=O)OCc2c1cc1n(c2=O)Cc2cc3c(CN(C)C)c(O)ccc3nc2-1 [Topotecan HCl; Topotecan hydrochloride] | 0.253 ± 0.013 | 1.067 ± 0.0058 | 0.5493 ± 0.0029 | 1.05 ± 0.02 | 0.0903 ± 0.0031 | 1.01 ± 0.011 |
| Nc1nnc(-c2cccc(Cl)c2Cl)c(N)n1 [Lamotrigine] | 0.998 ± 0.0035 | 0.986 ± 0.039 | 1 ± 0.028 | 0.954 ± 0.076 | 1.01 ± 0.011 | 1.01 ± 0.018 |
| CCOC(=O)N[C@@H]1CC[C@@H]2[C@@H](C1)C[C@H]1C(=O)O[C@H](C)[C@H]1[C@H]2/C=C/c1ccc(-c2cccc(F)c2)cn1 [Vorapaxar] | 1.023 ± 0.0058 | 1.01 ± 0.014 | 1.03 ± 0.011 | 1.01 ± 0.012 | 1.002 ± 0.0068 | 0.98 ± 0.013 |
| O=C(O)c1ccc(O)c2ncccc12 | 0.966 ± 0.015 | 0.996 ± 0.0036 | 0.953 ± 0.034 | 0.987 ± 0.01 | 1.001 ± 0.0085 | 0.9917 ± 0.0049 |
| CO[C@H]1C[C@@H]2CC[C@@H](C)[C@@](O)(O2)C(=O)C(=O)N2CCCC[C@H]2C(=O)O[C@H]([C@H](C)C[C@@H]2CC[C@H](n3cnnn3)[C@H](OC)C2)CC(=O)[C@H](C)/C=C(\C)[C@@H](O)[C@@H](OC)C(=O)[C@H](C)C[C@H](C)/C=C/C=C/C=C/1C [Zotarolimus(ABT-578)] | 0.7853 ± 0.0061 | 0.654 ± 0.011 | 0.71 ± 0.024 | 0.75 ± 0.023 | 0.689 ± 0.011 | 0.598 ± 0.049 |
